Source: the supplement of paper PMC3334620
Over roughly 33,000 sequences, “E-score (-0.5 to 0.5)” has its median near -0.017; the highest 2% begin near 0.3. This is one part of the list.

Target: T1, Sut1 (UniProt P53032)
T1 sequence: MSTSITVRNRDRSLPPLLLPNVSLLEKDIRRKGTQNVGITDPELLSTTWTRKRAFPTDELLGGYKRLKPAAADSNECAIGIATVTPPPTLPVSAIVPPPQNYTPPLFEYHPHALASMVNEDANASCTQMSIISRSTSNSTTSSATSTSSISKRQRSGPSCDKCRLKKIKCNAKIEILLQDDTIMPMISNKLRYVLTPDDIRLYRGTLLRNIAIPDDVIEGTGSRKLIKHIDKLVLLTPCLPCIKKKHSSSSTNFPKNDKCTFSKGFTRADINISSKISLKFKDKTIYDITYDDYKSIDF
Assay: PBM E-score (8-mer binding enrichment) (E-score (-0.5 to 0.5)); higher = stronger / more preferred TF binding; most listed sequences are background and not binding sites
Details: protein concentration: 200 nM; construct: GST-full length
Method in brief: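 Masliner-normalised scans of fluorescent anti-GST signal were the basis for scoring. That signal came from GST-tagged yeast transcription factors applied at about 100-200 nM to double-stranded universal all-10-mer Agilent arrays on fresh or once-stripped slides. Each ungapped eight-base word, pooled with its reverse complement, received an E-score from the Universal PBM Analysis Suite.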

Compared with ACCACGCC, GCCTACGA is higher in “PBM E-score” value: -0.178 for the first, -0.16 for the second.

Compared with GTATCGTA, CAAGTCCA is lower in “PBM E-score” value: 0.16 for the first, 0.0573 for the second.

Going from CAACACGA to CGAATAAG, the “PBM E-score” value rises from -0.0458 to -0.00132.

Going from AACGCAAG to CAACCCCC, the “PBM E-score” value falls from -0.128 to -0.266.

First: CGGCCCGA
Second: AGATTTCC
The “PBM E-score” value of the first is lower: -0.176 for the first, 0.14 for the second.

Going from ACGTTCTA to AAGGCAAA, the “PBM E-score” value rises from -0.015 to -0.00534.

First: CGACATCC
Second: CAACGGGA
The “PBM E-score” value of the first is lower: -0.0333 for the first, 0.0235 for the second.

Compared with ACCGCTTG, AGTAGAAT is higher in “PBM E-score” value: -0.0649 for the first, 0.189 for the second.

Going from GCCGACTA to CTGGTCTA, the “PBM E-score” value falls from 0.0858 to -0.144.

First: GCTTTTAA
Second: CTAAAATC
The “PBM E-score” value of the first is lower: 0.0428 for the first, 0.0458 for the second.

First: TGAAATAA
Second: TACGAGAA
The “PBM E-score” value of the first is lower: 0.00073 for the first, 0.0943 for the second.

Compared with CCGCATCG, TCGCGAAA is higher in “PBM E-score” value: -0.0554 for the first, -0.00363 for the second.

First: GTGGTACA
Second: CGCGTGAC
The “PBM E-score” value of the first is higher: -0.0752 for the first, -0.216 for the second.

Going from AACAGGAG to GCCTCCAA, the “PBM E-score” value falls from -0.0906 to -0.213.

Going from AGACGAGC to CTGCGCTA, the “PBM E-score” value falls from -0.148 to -0.193.

First: GCCGGAGA
Second: CCATGACG
The “PBM E-score” value of the first is higher: 0.316 for the first, -0.0782 for the second.

Going from GAATACCC to CTTTATAC, the “PBM E-score” value rises from -0.111 to 0.0888.

Compared with CAGACTCC, ACAAGTAA is lower in “PBM E-score” value: 0.0916 for the first, 0.00723 for the second.

Compared with CGCCAGAC, ACTAATCT is higher in “PBM E-score” value: -0.117 for the first, 0.205 for the second.

First: ACACGATC
Second: AGGCTGGA
The “PBM E-score” value of the first is higher: 0.0362 for the first, -0.299 for the second.

Compared with CATCCGCC, AAGTTCGT is lower in “PBM E-score” value: 0.0389 for the first, -0.2 for the second.

First: GAGCTGCA
Second: AGATTAGA
The “PBM E-score” value of the first is lower: -0.0497 for the first, 0.123 for the second.

Compared with CCGTCATC, ATGATTCA is higher in “PBM E-score” value: -0.214 for the first, -0.0566 for the second.

Compared with CGCGCCCC, ATGACCTA is higher in “PBM E-score” value: -0.28 for the first, 0.0964 for the second.

Going from ACCGGCTC to ACACCTCA, the “PBM E-score” value falls from -0.129 to -0.142.

First: CTATGATC
Second: ATAACTAG
The “PBM E-score” value of the first is lower: 0.0165 for the first, 0.114 for the second.

First: GACGCACA
Second: ACCCTGAG
The “PBM E-score” value of the first is higher: -0.013 for the first, -0.102 for the second.

Going from TCCGAAAA to ACTCTCGG, the “PBM E-score” value falls from 0.353 to 0.222.

Compared with GATGGACA, CACCCATA is lower in “PBM E-score” value: 0.0137 for the first, -0.301 for the second.

Going from CAAAGACC to GAATCGGC, the “PBM E-score” value rises from 0.0716 to 0.0753.

First: GTTCAAAA
Second: CCAGGTTA
The “PBM E-score” value of the first is higher: 0.0621 for the first, -0.0537 for the second.

Compared with GTGAGAGA, ACGTGACC is higher in “PBM E-score” value: -0.175 for the first, -0.124 for the second.

Going from ACGCAGCA to GATAAGCA, the “PBM E-score” value rises from -0.131 to 0.0379.

First: AGGCACAC
Second: AGGGGTGC
The “PBM E-score” value of the first is higher: -0.303 for the first, -0.364 for the second.

Compared with CATCTGAG, CGATACTA is higher in “PBM E-score” value: -0.143 for the first, 0.193 for the second.

First: TGATGGCA
Second: CACTATCG
The “PBM E-score” value of the first is lower: -0.121 for the first, 0.0427 for the second.

First: ATGATTGC
Second: AGCTTCGG
The “PBM E-score” value of the first is lower: 0.045 for the first, 0.111 for the second.

Going from CACTGGCC to CCATTAAA, the “PBM E-score” value rises from -0.137 to 0.0785.

First: AGAAGATA
Second: CGTTTATA
The “PBM E-score” value of the first is higher: 0.276 for the first, 0.17 for the second.

First: CTCCGCAA
Second: CTTCCGGC
The “PBM E-score” value of the first is higher: 0.271 for the first, 0.0877 for the second.

Compared with CCTCGAGG, GCGGACAA is higher in “PBM E-score” value: -0.221 for the first, 0.23 for the second.

First: AGTATGCA
Second: AAGAGTTG
The “PBM E-score” value of the first is lower: -0.0849 for the first, 0.0464 for the second.

Compared with CACTCGAA, GGCTATCA is lower in “PBM E-score” value: -0.11 for the first, -0.203 for the second.

Compared with AGGGAGGG, AGTAGTGA is higher in “PBM E-score” value: -0.158 for the first, 0.0779 for the second.

First: AGAGGGAT
Second: CTCTACCA
The “PBM E-score” value of the first is lower: -0.201 for the first, -0.0474 for the second.

Going from CTCGCCAG to GTCCGGAC, the “PBM E-score” value rises from -0.204 to 0.469.

Going from CACCCGGC to AGAATGAC, the “PBM E-score” value rises from -0.285 to 0.0454.

First: ACCAATCG
Second: ACCTCAGG
The “PBM E-score” value of the first is higher: 0.00273 for the first, -0.281 for the second.

Going from GTTCCAAC to ACTCGCTG, the “PBM E-score” value falls from 0.0919 to 0.0106.

Going from CAGAGGCG to TAGTTACA, the “PBM E-score” value rises from -0.259 to 0.0671.

Going from CAGTCTTC to AAGTGAAT, the “PBM E-score” value rises from -0.165 to 0.234.

Compared with AGCTCGAG, AACTAGAC is higher in “PBM E-score” value: -0.282 for the first, 0.041 for the second.

Compared with CGTATACG, GTCATATA is lower in “PBM E-score” value: 0.216 for the first, 0.213 for the second.

First: GAGCGCAC
Second: ATCAGGCC
The “PBM E-score” value of the first is higher: -0.0866 for the first, -0.101 for the second.

Compared with GAATTTCC, GAAGGAAC is lower in “PBM E-score” value: 0.0821 for the first, -0.0109 for the second.

First: TGCCGCCA
Second: AATCAGAT
The “PBM E-score” value of the first is lower: -0.0294 for the first, 0.0945 for the second.

First: AAGTCGGA
Second: CTCTCGAA
The “PBM E-score” value of the first is higher: 0.226 for the first, -0.282 for the second.

Compared with GTGAACTA, GGATATGA is higher in “PBM E-score” value: 0.101 for the first, 0.127 for the second.

First: CGGAAGAG
Second: ACCTACGG
The “PBM E-score” value of the first is higher: -0.0486 for the first, -0.15 for the second.

Going from ACAAACTC to AAAAATAC, the “PBM E-score” value falls from 0.214 to 0.132.

Going from GAAAGTGC to GCTGAGCA, the “PBM E-score” value falls from 0.0396 to -0.181.

First: GAGCGACA
Second: CTTTAAGA
The “PBM E-score” value of the first is lower: -0.137 for the first, 0.207 for the second.

Compared with GCCCGCCC, CACAGTAA is higher in “PBM E-score” value: -0.27 for the first, 0.101 for the second.

Compared with GTTAACCA, GTGCAAGA is higher in “PBM E-score” value: 0.0107 for the first, 0.0812 for the second.

Compared with ATTATTCC, ACTCACAT is lower in “PBM E-score” value: 0.288 for the first, 0.027 for the second.

First: ATGGGTGG
Second: ACGCAGAC
The “PBM E-score” value of the first is higher: -0.106 for the first, -0.153 for the second.

Going from ACCGTTCA to ATGTGACG, the “PBM E-score” value falls from -0.131 to -0.16.

Compared with ACATTTGG, GCACAGAC is higher in “PBM E-score” value: -0.0798 for the first, -0.0501 for the second.

Going from CGAAGGTA to GTAGCTGA, the “PBM E-score” value falls from -0.0153 to -0.23.

Compared with ATAAAGGA, CTCGATAA is higher in “PBM E-score” value: -0.0584 for the first, 0.0724 for the second.

Going from AAAAGAAC to AGACACAT, the “PBM E-score” value falls from 0.164 to -0.138.

First: CCCCGTCG
Second: CAGTATGA
The “PBM E-score” value of the first is lower: -0.248 for the first, 0.00658 for the second.

Going from ACGGCATG to CACCACGA, the “PBM E-score” value rises from -0.236 to 0.0198.

Going from AGACACAG to CGGTATGC, the “PBM E-score” value falls from 0.00857 to -0.22.

Compared with AAAATAAT, GACCTGTA is lower in “PBM E-score” value: 0.279 for the first, -0.0355 for the second.

Going from CCAATAAA to AGTAGCGA, the “PBM E-score” value falls from 0.148 to 0.0569.

First: AGTCCGGA
Second: GGAAGCTA
The “PBM E-score” value of the first is higher: 0.487 for the first, 0.124 for the second.

Going from CTGGTTGA to CTGTGGGA, the “PBM E-score” value falls from -0.208 to -0.301.

Compared with CAAATACA, CTAATTTC is higher in “PBM E-score” value: 0.115 for the first, 0.299 for the second.

First: GCGATAGC
Second: TAGAGAAA
The “PBM E-score” value of the first is lower: -0.0987 for the first, -0.00228 for the second.

First: CACACGGG
Second: AAGCAAAA
The “PBM E-score” value of the first is lower: -0.067 for the first, 0.195 for the second.

First: GCTTCATA
Second: CCGCCCCC
The “PBM E-score” value of the first is higher: 0.0636 for the first, -0.19 for the second.

Compared with CAGCTCCA, AATACAAG is higher in “PBM E-score” value: -0.0491 for the first, 0.123 for the second.

First: CTCGAAAC
Second: CAGCGGGC
The “PBM E-score” value of the first is higher: 0.0798 for the first, -0.158 for the second.

First: CAAACAGG
Second: AAAAACTT
The “PBM E-score” value of the first is lower: -0.292 for the first, 0.163 for the second.

Compared with AATCATGA, CCTGCTCC is lower in “PBM E-score” value: 0.224 for the first, 0.00148 for the second.
